This is an account of results in PMC7819943, “Rice protein-binding microarrays: a tool to detect cis-acting elements near promoter regions in rice”.

The other results are listed elsewhere or left out.

For the assay, the target named is T1, OsWOX13 (Oryza sativa, UniProt Q5QMM3 1-267).
T1 sequence: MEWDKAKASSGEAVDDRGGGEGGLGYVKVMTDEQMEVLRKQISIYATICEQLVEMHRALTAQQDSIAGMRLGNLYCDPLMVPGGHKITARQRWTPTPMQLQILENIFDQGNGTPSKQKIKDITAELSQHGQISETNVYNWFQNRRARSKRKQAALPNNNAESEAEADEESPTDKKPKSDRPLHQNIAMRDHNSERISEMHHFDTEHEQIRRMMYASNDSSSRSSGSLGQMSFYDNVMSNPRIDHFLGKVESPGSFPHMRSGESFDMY
The assay can be described thus: protein-binding microarray (RPBM); PBS, 2% BSA, 51.3 ng/ul salmon testes DNA, 50 uM zinc acetate, 200 nM TF, 25 C, 1 h; high values mean tight binding. The following applies: protein: recombinant; tags: N-terminal polyhistidine and DsRed monomer fusion (pET32a); label: CyDye5-dUTP incorporated in the synthesized complementary strand; 3' TTTTT single-stranded linker to array surface; dsDNA, one strand shown. In short, it runs like this:
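An Axon 4000B scanner gave the binding signal as per-feature fluorescence intensity in arbitrary units. This followed washing of a custom Agilent array that had been incubated for 1 h at 25 °C with 200 nM protein in PBS, 2% BSA, salmon testes DNA and 50 µM zinc acetate. The proteins were transcription factors fused at the N-terminus to polyhistidine and DsRed, expressed in E. coli BL21-CodonPlus and purified on Ni–NTA.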
With “GAGCTAATTAGGCCATATATAAATTATTCATCGAAGGGTTCGGAGTCACCTAGTGCAG”, the binding signal is 42900 fluorescence intensity (a.u.).

“TAATCTAAATCAACTCATTGATTTTGCAAATGTGAGTTGACGGAGTCACCTAGTGCAG”: the binding signal is 13300 fluorescence intensity (a.u.).

As for “ATGCATGGAAATTAATTAATCTAGCTCGTTGTCGACGTCACGGAGTCACCTAGTGCAG”, the binding signal is 7480 fluorescence intensity (a.u.).

With “TAAGATATCAAAATTTATGATAATTTTATCATCTCTAAGACGGAGTCACCTAGTGCAG”, the binding signal is 3550 fluorescence intensity (a.u.).

On to “CCTGTGGGCATAAAAGCACCCGGCACCAGCGTCCGCTCGACGGAGTCACCTAGTGCAG”, for which the binding signal was 6240 fluorescence intensity (a.u.).

“CCAGCCCGTACTAATTAGGAGTACCATGAGAGGTACCGTACGGAGTCACCTAGTGCAG”: the binding signal was 3370 fluorescence intensity (a.u.).

With “TCCTTGATTTCTACTCTGGTTCAGATTATATAGTTTCTCTCGGAGTCACCTAGTGCAG”, the binding signal was 16400 fluorescence intensity (a.u.).

In the case of “AGTTGATTTGTTCTTATAAAACTGAATAATTATAACATAGCGGAGTCACCTAGTGCAG”, the binding signal is 17700 fluorescence intensity (a.u.).

As for “TTCAGCCTGTCATCGTCAATTCGTCATCAGTTCATCGCTCCGGAGTCACCTAGTGCAG”, the binding signal is 6130 fluorescence intensity (a.u.).

For “TTTAGTATATAATAGATAGATAGATAGAAGATTTGTACTACGGAGTCACCTAGTGCAG”, the binding signal was 4500 fluorescence intensity (a.u.).

On to “GCATTAATGCATTATTAATCAGTGATTCATTTAACCCCATCGGAGTCACCTAGTGCAG”, for which the binding signal is 12500 fluorescence intensity (a.u.).

For “CATGATTTATAAATTATAAGCCTTGTGACTTGTGAGACGCCGGAGTCACCTAGTGCAG”, the binding signal is 51900 fluorescence intensity (a.u.).

On to “TACACTTCGGTCATCATTTATAATTATAAATGTGTATTAACGGAGTCACCTAGTGCAG”, for which the binding signal was 9110 fluorescence intensity (a.u.).

As to “TACGGATAGTGATTGGGACGGAGGTGGTAACTCGTTTTACCGGAGTCACCTAGTGCAG”, the binding signal is 14300 fluorescence intensity (a.u.).

As for “ATCTAATCAACTTCTTGTAGTTGTTAGGCATTATGCGCGGCGGAGTCACCTAGTGCAG”, the binding signal is 4120 fluorescence intensity (a.u.).

For “ATGGTTAACTGCTCTGATCTAAACTACTTGTTACGTGATGCGGAGTCACCTAGTGCAG”, the binding signal is 7350 fluorescence intensity (a.u.).

For “TAGCAGATTAATCAAACTGAAACCCTCACTCCACAGCATTCGGAGTCACCTAGTGCAG”, the binding signal is 9560 fluorescence intensity (a.u.).

As for “GAAATTAGTCCAATAATTCAGTTTAATATTTACCCGGTTACGGAGTCACCTAGTGCAG”, the binding signal was 8590 fluorescence intensity (a.u.).

“AGGATTGAATGAGTTTTCAGGGTACACAGGGAATTTACTCCGGAGTCACCTAGTGCAG”: the binding signal is 5390 fluorescence intensity (a.u.).

“ATATATTTTGAGATTGACGAAATCACAATAAACACCTCATCGGAGTCACCTAGTGCAG”: the binding signal was 13900 fluorescence intensity (a.u.).

Turning to “TTTGACTGCCGCTGACCTGTGGGCCCCACAACCACCCCATCGGAGTCACCTAGTGCAG”, the binding signal was 19800 fluorescence intensity (a.u.).

With “ATCAATAATTAAATATACAAGTACCACTTAATGATCATGTCGGAGTCACCTAGTGCAG”, the binding signal was 17700 fluorescence intensity (a.u.).

For “ACTTTTCAGTCACATCGTACTAATTTCAACCCAAATTTCTCGGAGTCACCTAGTGCAG”, the binding signal was 4600 fluorescence intensity (a.u.).

On to “GTTTCATTTTAATTGACGCTTTGGACAATGACATGCTCTACGGAGTCACCTAGTGCAG”, for which the binding signal was 15800 fluorescence intensity (a.u.).

Turning to “GAAATCAAATTACACCGATTTCAATAGTTCGGGGTCGAGACGGAGTCACCTAGTGCAG”, the binding signal is 3520 fluorescence intensity (a.u.).

On to “AACTCATAAATTTGATATGTGATTGTTGATTGTAGACCTCCGGAGTCACCTAGTGCAG”, for which the binding signal is 24700 fluorescence intensity (a.u.).

As for “ATAAAACTGAATATAATATAAATATATGTATTGTTCAGGACGGAGTCACCTAGTGCAG”, the binding signal is 4480 fluorescence intensity (a.u.).

For “CTGATTTGTTTCAACTGGGCTGTAGTGGACCTGATACCTGCGGAGTCACCTAGTGCAG”, the binding signal was 12200 fluorescence intensity (a.u.).

Take “ATAGTAAATTTTACCAATGACATCGTTGAATACATTTGCACGGAGTCACCTAGTGCAG”: the binding signal was 7330 fluorescence intensity (a.u.).

“CTAATAATTTGTATATATGTACCGTATGAGTAGTAGTATTCGGAGTCACCTAGTGCAG”: the binding signal is 27000 fluorescence intensity (a.u.).

As for “CGCTTCAATTAGCATGTACTGTTGGGAGATGCACACGTTTCGGAGTCACCTAGTGCAG”, the binding signal is 8670 fluorescence intensity (a.u.).

In the case of “GAGATAAATGGGCCTAAATGAGGCCGTGCCATACAATGGTCGGAGTCACCTAGTGCAG”, the binding signal was 5440 fluorescence intensity (a.u.).

In the case of “CGAAACGTCTCCAATTAATCTCTCTCATCAGGTGACACCGCGGAGTCACCTAGTGCAG”, the binding signal was 3780 fluorescence intensity (a.u.).

In the case of “AGTGATTATAATATTGTTCACAAATTTACAAACCTCTCATCGGAGTCACCTAGTGCAG”, the binding signal was 36700 fluorescence intensity (a.u.).

With “GTGATGATTTTCCATTAGGATTTAGGAATCGTGCGCCGACCGGAGTCACCTAGTGCAG”, the binding signal was 21600 fluorescence intensity (a.u.).

With “GCTGACTGGATAAAATCTGATAAGCGTGAAGATGACCTTTCGGAGTCACCTAGTGCAG”, the binding signal is 21400 fluorescence intensity (a.u.).

Consider “ACGAAACTTGATTTGTGTTTGGAACCTTGGGTTCTCAACCCGGAGTCACCTAGTGCAG”, for which the binding signal is 22700 fluorescence intensity (a.u.).

On to “GCTAATTAACTGTGATTGCAAGAAGGAAAACCATAGAAGGCGGAGTCACCTAGTGCAG”, for which the binding signal was 53800 fluorescence intensity (a.u.).

In the case of “ATGGGATTGATTTCAATCAATGATTAACTCAAAACTGTGTCGGAGTCACCTAGTGCAG”, the binding signal was 48300 fluorescence intensity (a.u.).

In the case of “CTCTTATATGGCAGGTTTGATTGCCGCGACGACGAGAGACCGGAGTCACCTAGTGCAG”, the binding signal is 4150 fluorescence intensity (a.u.).

Regarding “TTGATGATGAAATAATGAATGATATTTGACAAGGAGCTGACGGAGTCACCTAGTGCAG”, the binding signal was 18800 fluorescence intensity (a.u.).

Regarding “AGAGCAAATCCCTGTCTCCTGCAATTGAAAATGAAATAATCGGAGTCACCTAGTGCAG”, the binding signal is 10700 fluorescence intensity (a.u.).
